In patent publication US8557796B2, “Substituted 1-oxa-2,8-diaza-spiro [4,5] dec-2-ene derivatives and related treatment methods” (Gruenenthal GmbH, priority 2001, dated 2013):

molecular target: glycine binding site of the NMDA receptor channel (Rattus norvegicus, UniProt P35439); experiment: Receptor bond, glycine binding site of the NMDA receptor channel, (3H)-MDL 105.519 displacement; conditions: rat cortex and hippocampus membrane homogenate
Method: Hawes and P. Towers, Journal of Pharmacology and Experimental Therapeutics, Vol. 279, p. 62, 1996].
For this purpose, cortex and hippocampus from freshly removed rats' brains were freshly prepared and homogenized with ice cooling in 5 mmol/l TRIS-acetate buffer, 0.32 mol/l saccharose pH 7.4 (10 ml/g fresh weight) with a Potter homogenizer (Braun/Melsungen 10 piston strokes at 500 rpm) and then centrifuged for 10 minutes at 1,000 g and 4° C. The first supernatant was collected and the sediment again homogenized with 5 mmol/1 TRIS-acetate buffer, 0.32 mol/l saccharose pH 7.4 (5 ml/g original fresh weight) with the Potter homogenizer (10 piston strokes at 500 rpm) with ice cooling and centrifuged for 10 minutes at 1,000 g and 4° C. The resultant supernatant was combined with the supernatant from the first centrifuging and centrifuged at 17,000 g for 20 minutes at 4° C. The supernatant after this centrifuging was discarded and the membrane sediment taken up with 5 mmol/l TRIS-acetate buffer pH 8.0 (20 ml/g original fresh weight) and homogenized with 10 piston strokes at 500 rpm. The membrane homogenate was then incubated for 1 hour at 4° C. and centrifuged for 30 minutes at 50,000 g and 4° C. The supernatant was discarded and the centrifuge tube with the membrane sediment sealed with parafilm and frozen for 24 hours at −20° C. The following day the membrane sediment was thawed and taken up with 5 mmol ice cold TRIS-acetate buffer, 0.1% saponin (w/v) pH 7.0 (10 ml/g original fresh weight) and homogenized with 10 piston strokes at 500 rpm and then centrifuged for 20 minutes at 50,000 g and 4° C. The resultant supernatant was discarded and the sediment taken up in a small volume with 5 mmol/l TRIS-acetate buffer pH 7.0 (about 2 ml/g original fresh weight) and again homogenized with 10 piston strokes at 500 rpm. After determining the protein content, the membrane homogenate was adjusted with 5 mmol/l TRIS-acetate buffer pH 7.0 to a protein concentration of 10 mg protein/ml and frozen in aliquots until testing.
For the receptor binding test aliquots were thawed, diluted 1:10 with 5 mmol/1 TRIS-acetate buffer pH 7.0, homogenized with ice cooling with 10 piston strokes at 500 rpm using the Potter homogenizer (10 piston strokes at 500 rpm) and centrifuged for 60 minutes at 55,000 g at 4° C. The supernatant was decanted and the membrane sediment adjusted with 50 mmol ice cold TRIS-acetate buffer pH 7.0 to a protein concentration of 1 mg/ml and again homogenized with 10 piston strokes at 500 rpm and held in suspension in the ice bath while stirring on a magnetic stirrer. This membrane homogenate was used in the receptor binding test.
In the binding test 50 mmol/1 TRIS-acetate buffer pH 7.0 was used as buffer and 1 nmol/l (^3H)-MDL 105.519 (B. M. Baron et al. 1996) was used as radioactive ligand. The non-specific bond content was determined in the presence of 1 mmol/l glycine.
The batches were incubated for 120 minutes at 4° C. and then harvested to determine the radioactive ligand bound to the membrane homogenate by filtration through glass fiber filter mats (GF/B). The radioactivity retained on the glass fibre filters was measured in the β-counter after adding scintillator.
Compounds according to the invention were tested in this assay; the measured results are recited in Table 6: […]

Compound	G1yB-bond, 10 μM, % inhibition [%]
Cc1ccc(S(=O)(=O)NC(Cc2ccccc2)C(=O)N2CCC3(CC2)CC(C(=O)NCc2cccnc2)=NO3)cc1 (centres unmarked) [Example 36]	38

same assay, conditions: rat cortex and hippocampus membrane homogenate, read-out: G1yB-bond, 10 μM, % inhibition

inhibition at 10 µM [%]	Compound
36	CC(C)CNC(=O)C1=NOC2(CCN(C(=O)c3ccc(F)cc3)CC2)C1 [Example 137, 8-(4-fluoro-benzoyl)-1-oxa-2,8-diaza-spiro[4,5]dec-2-ene-3-carboxylic acid isobutyl-amide]
59	O=C(NCCOc1ccccc1)C1=NOC2(CCN(S(=O)(=O)c3cccc(C(F)(F)F)c3)CC2)C1 [Example 202, 8-(3-trifluoromethyl-benzenesulphonyl)-1-oxa-2,8-diaza-spiro[4,5]dec-2-ene-3-carboxylic acid (2-phenoxy-ethyl)-amide]
91	CCSCCNC(=O)C1=NOC2(CCN(C(=O)c3c(-c4c(F)cccc4Cl)noc3C)CC2)C1 [Example 175, 8-[3-(2-chloro-6-fluorophenyl)-5-methyl-isoxazole-4-carbonyl]-1-oxa-2,8-diaza-spiro [4,5]dec-2-ene-3-carboxylic acid (2-ethylsulphanyl-ethyl)-amide]
89	CCOc1ccccc1C(=O)N1CCC2(CC1)CC(C(=O)NCCOC(C)=O)=NO2 [Example 190, {[8-(2-ethoxy-benzoyl)-1-oxa-2,8-diaza-spiro[4,5]dec-2-ene-3-carbonyl]-amino]-ethyl acetate]
39	CCC(C(=O)N1CCC2(CC1)CC(C(=O)NCCC#N)=NO2)c1ccccc1 (centres unmarked) [Example 206, 8-(2-phenyl-butyryl)-1-oxa-2,8-diaza-spiro[4,5]dec-2-ene-3-carboxylic acid (2-cyano-ethyl)-amide]
37	O=C(NC1CCCC1)C1=NOC2(CCN(C(=O)c3cccnc3Cl)CC2)C1 [Example 34, 8-(2-chloro-pyridine-3-carbonyl)-1-oxa-2,8-diaza-spiro[4,5]dec-2-ene-3-carboxylic acid cyclopentylamide]
41	CC(=O)OC(C)(C)C(=O)N1CCC2(CC1)CC(C(=O)NCc1ccccc1)=NO2 [Example 174, Acetic acid 2-(3-benzylcarbamoyl-1-oxa-2,8-diaza-spiro[4,5]dec-2-ene-8-yl)-1,1-dimethyl-2-oxo-ethyl ester]
